Experimental data: PubChem BioAssay (NCATS)
The other results are listed elsewhere or left out. Further columns of the screen follow, without active or inactive calls. For part of these data: Compounds called inactive in the main read-out are mostly missing here. Potencies come from curve fits of mixed quality, noted in brackets.

Experiments:
[1] = qHTS drug screen for cell cycle checkpoint inhibitors in PARPi-resistant BRCA-mutant ovarian cancer cell lines. (AID 1963452); settings: PEO1/OlaR viability, CellTiter-Glo luminescence, 96 h
Outline: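 PEO1, PEO4 and PEO1/OlaR ovarian cancer cells, 600 per well, exposed 96 h at 37C to a dilution series. Viability read by CellTiter-Glo luminescence, normalized to DMSO and empty wells; activity summarized as Z-AUC.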

[2] = qHTS for identification of novel therapeutic agents for treatment of microphthalmiaassociated transcription factor (MiT) renal cell carcinoma (RCC) (AID 1963991); settings: TFE3-RCC viability, CellTiter-Glo, 48 h
Outline: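 Curves over 11 concentrations were fitted to CellTiter-Glo luminescence, scaled between empty wells (0%) and DMSO (100%) viability. Cells were UOK109, UOK124 and UOK145 TFE3-fusion RCC lines at 500/well, exposed 48 hours at 37 C.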

[3] = measured here: PEO1 parental viability
[4] = measured here: UOK124 cell viability
[5] = measured here: UOK145 cell viability
Tags give direction and shape of the fitted curve.

| SMILES | AC50 [1, 3] | AC50 ([1]; measured here: PEO4 viability) | AC50 [2, 4] | AC50 [2, 5] |
| --- | --- | --- | --- | --- |
| CN(C)CCN(C)C(=O)c1ccc(NC(=O)Nc2ccc(-c3nc(N4CCOCC4)c4ccn(CC(F)(F)F)c4n3)cc2)cc1 | 309 nM [falling, full curve] | 219 nM [falling, full curve] | 1480 nM [falling, full curve] | 743 nM [falling, full curve] |
| CC(C)C(=O)OCC(=O)[C@@]12O[C@H](C3CCCCC3)O[C@@H]1C[C@H]1[C@@H]3CCC4=CC(=O)C=C[C@]4(C)[C@H]3[C@@H](O)C[C@@]12C | 13800 nM [falling, partial curve] | 21900 nM [falling, single point] | – | – |
| O=C1NC(=O)C(c2cnc3ccccn23)=C1c1cn2c3c(cccc13)CN(C(=O)N1CCOCC1)CC2 | 436 nM [falling, full curve] | 347 nM [falling, full curve, poor fit] | 93.5 nM [falling, partial curve] | 1320 nM [falling, partial curve] |
| Cc1cc(O)c(-c2ccc([C@@H](C)CN)cc2)c2c1[nH]c(=O)c1sccc12 | 43.6 nM [falling, full curve] | 43.6 nM [falling, full curve] | – | – |
